# Measured values: PubChem BioAssay (Tox21)
# Values joined by “and” are separate entries in the source; they are usually repeats but may differ in a detail not shown here. Equal values may be shown once. The inconclusive results got no clear call from the source; some entries with a clear call stand among them for comparison. For part of these data: A potency beside an inconclusive call is a rough fit, not a confirmed value. The source holds several records for some structures; these can differ, active in one and inactive in another. Active and inactive are the calls of the source. Unless noted, calls come from the whole dose curve; as a rule, active = well fitted curve in the direction sought with a large enough effect in the repeat runs; inconclusive = weak or mixed curves; inactive = no such curve, though single readings can be large; an effect the other way counts as inactive or inconclusive.
# Experiments:
# [1] = qHTS assay to identify small molecule antagonists of the estrogen related receptor (ERR) signaling pathway from Tox21 library (AID 1224848); note: nearly all actives have a fitted effect of over 50% in size; note: potency is the fitted concentration of half-maximal effect
# How it was run: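 Luminescent reporter read-out (ONE-Glo) from NTP's ERR cell line after 18 h treatment at 37 C with DMSO-dissolved Tox21 compounds; cells pre-plated 6 h beforehand at 2,000 per well.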
# [2] = qHTS RealTime-Glo MT Cell Viability Assay in HEK293 cells - 32 hour (AID 1224868); note: nearly all actives have a fitted effect of over 50% in size; note: potency is the fitted concentration of half-maximal effect
# How it was run: (§1)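 Luminescence generated by NanoLuc from substrate produced by living HEK293 cells served as the viability signal. Each value reflects the reading at its stated time point during continuous 40 h compound exposure at 37 C.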
# [3] = A CellTox Green Cytotoxicity Assay to monitor cytotoxicity in HEK293 cells - 0 hour (AID 1224869); note: potency is the fitted concentration of half-maximal effect; nearly all actives have a fitted effect of over 50% in size
# How it was run: (§2)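 HEK293 cells premixed with CellTox Green dye were seeded at 600 cells/well and left 5 h at 37 C/5% CO2 before pin transfer of 23 nL compound in DMSO. Fluorescence from dye bound to dead-cell DNA was read during 40 h treatment.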
# [4] = A CellTox Green Cytotoxicity Assay to monitor cytotoxicity in HEK293 cells - 40 hour (AID 1224871); note: nearly all actives have a fitted effect of over 45% in size; note: potency is the fitted concentration of half-maximal effect
# How it was run: as §2
# [5] = qHTS RealTime-Glo MT Cell Viability Assay in HEK293 cells - 16 hour (AID 1224872); note: potency is the fitted concentration of half-maximal effect; nearly all actives have a fitted effect of over 50% in size
# How it was run: as §1
# [6] = qHTS RealTime-Glo MT Cell Viability Assay in HepG2 cells - 8 hour (AID 1224873); note: potency is the fitted concentration of half-maximal effect; nearly all actives have a fitted effect of over 55% in size
# How it was run: (§3)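 HepG2 cells (600/well) mixed with RealTime-Glo MT reagent, settled 5 h at 37 C/5% CO2 before compound addition. Nonlytic NanoLuc luminescence from viable-cell prosubstrate reduction read repeatedly during 40 h treatment at 37 C.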
# [7] = qHTS RealTime-Glo MT Cell Viability Assay in HEK293 cells - 40 hour (AID 1224874); details: RealTime-Glo luminescence; max response: stronger effect = lower value; note: nearly all actives have a fitted effect of over 50% in size; note: potency is the fitted concentration of half-maximal effect; for max response: % is set by controls: 0 for no effect and ±100 for the full control effect
# How it was run: (§4)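 HEK293 cells mixed with RealTime-Glo reagents (NanoLuc plus cell-permeant prosubstrate) at 600 cells/well, preincubated 5 h at 37 C/5% CO2, then given 23 nL compound in DMSO. Nonlytic luminescence from viable cells was read at 0, 8, 16, 24, 32 and 40 h.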
# [8] = A CellTox Green Cytotoxicity Assay to monitor cytotoxicity in HepG2 cells - 16 hour (AID 1224876); note: nearly all actives have a fitted effect of over 45% in size; note: potency is the fitted concentration of half-maximal effect
# How it was run: (§5)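 HepG2 cells were seeded together with the CellTox Green dye at 600 cells/well, left 5 h at 37 C/5% CO2, then given compounds in DMSO. Fluorescence from dye bound to dead-cell DNA was read repeatedly over 40 h of treatment at 37 C.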
# [9] = A CellTox Green Cytotoxicity Assay to monitor cytotoxicity in HepG2 cells - 24 hour (AID 1224878); note: potency is the fitted concentration of half-maximal effect; nearly all actives have a fitted effect of over 45% in size
# How it was run: as §5
# [10] = A CellTox Green Cytotoxicity Assay to monitor cytotoxicity in HEK293 cells - 32 hour (AID 1224881); note: nearly all actives have a fitted effect of over 40% in size; note: potency is the fitted concentration of half-maximal effect
# How it was run: as §2
# [11] = qHTS assay to identify small molecule agonists of H2AX - cell viability counter screen (AID 1224847; calls by dose curve; note: nearly all actives have a fitted effect of over 30% in size; note: potency is the fitted concentration of half-maximal effect)
# How it was run: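 Wild-type CHO-K1 cells (10% FBS medium) were plated overnight at 37C, exposed to compounds at 15 concentrations for 3 hr at 37C (0.76% DMSO final), and viability was read as CellTiter-Glo luminescence after 30 min at room temperature.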
# [12] = A CellTox Green Cytotoxicity Assay to monitor cytotoxicity in HepG2 cells - 40 hour (AID 1224879); note: nearly all actives have a fitted effect of over 40% in size; note: potency is the fitted concentration of half-maximal effect
# How it was run: as §5
# [13] = qHTS RealTime-Glo MT Cell Viability Assay in HEK293 cells - 0 hour (AID 1224880); note: top concentration of the series differs between compounds; % is set by controls: 0 for no effect and ±100 for the full control effect; nearly all actives have a fitted effect of over 45% in size
# How it was run: as §4
# [14] = A CellTox Green Cytotoxicity Assay to monitor cytotoxicity in HEK293 cells - 24 hour (AID 1224875); note: nearly all actives have a fitted effect of over 45% in size; note: potency is the fitted concentration of half-maximal effect
# How it was run: as §2
# [15] = qHTS RealTime-Glo MT Cell Viability Assay in HepG2 cells - 32 hour (AID 1224877); note: nearly all actives have a fitted effect of over 55% in size; note: potency is the fitted concentration of half-maximal effect
# How it was run: (§6)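 Tox21 10K library screened in qHTS format on HepG2 cells carrying RealTime-Glo reagents. Compounds were added after a 5 h preincubation, and the luminescent signal from continuous culture was measured repeatedly during 40 h treatment.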
# [16] = qHTS RealTime-Glo MT Cell Viability Assay in HepG2 cells - 24 hour (AID 1224867)
# How it was run: as §6
# [17] = qHTS RealTime-Glo MT Cell Viability Assay in HepG2 cells - 40 hour (AID 1224870)
# How it was run: as §3
# Tags give direction and shape of the fitted curve.
smiles,measurement,setting,value
COC(=O)[C@H]1[C@H]2C[C@@H]3c4[nH]c5cc(OC)ccc5c4CCN3C[C@H]2C[C@@H](OC(=O)/C=C/c2ccc(O)c(OC)c2)[C@@H]1OC,Potency,[1],active: 10.6 µM
same,Potency,[2],"inconclusive: 4.77 µM [cytotoxic, full curve]"
same,Potency,[3],"inconclusive: 13.4 µM [activator, partial curve]"
same,Potency,[4],"inconclusive: 10.7 µM [activator, partial curve]"
same,Potency,[5],"inconclusive: 7.56 µM [cytotoxic, partial curve]"
same,Potency,[6],"inconclusive: 12 µM [falling, partial curve, poor fit]"
same,Potency,[7],"inconclusive: 6.01 µM [cytotoxic, full curve]"
same,Potency,[8],active: 23.9 µM
same,Potency,[9],active: 26.8 µM
same,Potency,[10],active: 19 µM
c1ccc(C[n+]2cccc3ccccc32)cc1,Potency,[1],active: 48.6 µM
CCCCCCC(=O)c1ccccc1,Potency,[1],inactive
C=C(C)C(=O)OCC(CC)(COC(=O)C(=C)C)COC(=O)C(=C)C,Potency,[11],"inconclusive: 81.3 µM [cytotoxic, partial curve] and inconclusive: 98.9 µM [cytotoxic, single point]"
same,Potency,[5],"inconclusive: 24.9 µM [cytotoxic, full curve]"
same,Potency,[8],active: 42.9 µM
CCCCCCCC(=O)[O-].CCCCCCCC(=O)[O-].[Zn+2],Potency,[11],inactive
same,Potency,[8],"inconclusive: 0.0952 µM [activator, single point]"
O=C(O)CCC(=O)C(=O)O,Potency,[11],inactive
same,Potency,[4],inactive
Nc1ncnc2nc[nH]c12,Potency,[11],"inconclusive: 12.7 µM [rising, full curve] and inconclusive: 15.6 µM [rising, full curve]"
same,Potency,[8],"inconclusive: 21.9 µM [activator, single point]"
same,Potency,[9],"inconclusive: 21.9 µM [activator, single point]"
same,Potency,[12],"inconclusive: 21.9 µM [activator, single point]"
same,Potency,[10],inactive
CC(=O)CCCCn1c(=O)c2c(ncn2C)n(C)c1=O,Potency,[1],inactive
same,Potency,[2],inactive
same,Potency,[8],inactive
same,Potency,[13],inactive
Cc1cc(N)c(S(=O)(=O)O)cc1Cl,Potency,[1],inactive
same,Potency,[14],inactive
same,Potency,[15],inactive
same,Potency,[13],inactive
CC(C)CCCCCCCOC(=O)CCCCC(=O)OCCCCCCCC(C)C,Potency,[11],inactive
same,max response,[7],inactive: -6.27% and inactive: 3.22%
CCC(=O)/C=C/C1C(C)=CCCC1(C)C (stereo unspecified),Potency,[11],inactive
same,Potency,[8],"inconclusive: 54.9 µM [activator, single point]"
same,Potency,[9],"inconclusive: 54.9 µM [activator, single point]"
same,Potency,[12],"inconclusive: 54.9 µM [activator, single point]"
same,Potency,[10],active: 49.1 µM
O=C(Cl)c1cccc(C(=O)Cl)c1,Potency,[11],inactive
same,Potency,[15],inactive
CN1CCCC(n2nc(Cc3ccc(Cl)cc3)c3ccccc3c2=O)CC1 (stereo unspecified),Potency,[1],inconclusive: 26.6 µM [inhibitor]
same,Potency,[16],"inconclusive: 21.3 µM [falling, partial curve, poor fit]"
same,Potency,[17],"inconclusive: 23.9 µM [falling, single point]"
same,Potency,[4],"inconclusive: 26.8 µM [activator, single point]"
same,Potency,[5],active: 7.56 µM
same,Potency,[7],active: 9.52 µM
same,Potency,[14],"inconclusive: 26.8 µM [activator, single point]"
same,Potency,[8],active: 26.8 µM
same,Potency,[15],"inconclusive: 21.3 µM [cytotoxic, single point]"
same,Potency,[9],active: 23.9 µM
CCCCC(CC)COC(=O)c1ccccc1C(=O)O (stereo unspecified),Potency,[1],inconclusive: 69.8 µM [inhibitor]
same,Potency,[2],"inconclusive: 12.5 µM [cytotoxic, full curve]"
same,Potency,[7],"inconclusive: 12.5 µM [cytotoxic, full curve]"
CC/C=C1/OC(=O)c2ccccc21,Potency,[1],inactive
same,Potency,[15],inactive
CN1C(CSCC(F)(F)F)Nc2cc(Cl)c(S(N)(=O)=O)cc2S1(=O)=O (stereo unspecified),Potency,[1],"inconclusive: 26.6 µM [inhibitor, partial curve, poor fit]"
same,Potency,[4],inactive
same,Potency,[7],active: 21.3 µM
same,Potency,[12],inactive
CCN(CCN)c1cccc(C)c1,Potency,[1],"inconclusive: 69.2 µM [inhibitor, single point] and inconclusive: 61.1 µM [inhibitor]"
same,Potency,[4],"inconclusive: 55.5 µM [activator, partial curve, poor fit] and inactive"
same,max response,[7],inactive: -16.9% and inactive: 1.24%
same,Potency,[14],"inconclusive: 13.9 µM [activator, partial curve, poor fit]"
same,Potency,[9],"inconclusive: 39.3 µM [activator, partial curve]"
same,Potency,[10],"inconclusive: 13.9 µM [activator, partial curve, poor fit]"
